Data reported in the supplement of paper PMC4967469.
IC50 is the fitted dose that halves viability relative to control wells, and lower means more sensitive; a fit beyond the top or the lowest dose is shown as a bound at that dose. AUC, from the same fit, is the share of area under the viability curve across the 256-fold dose range; it is 1 without any effect and falls as sensitivity rises. For some of these results: Where the top dose is marked as inferred, it was derived from the fitted curves, not read from the paper. For some of these results: Drugs with an entry number were screened twice under separate entries, and the two screens often disagree.

Legend:
Test in all cases: Viability of human cancer cell lines after 72 h of drug (GDSC screen)
LAQ824 = compound: O=C(/C=C/c1ccc(CN(CCO)CCc2c[nH]c3ccccc23)cc1)NO [LAQ824]; conditions: top dose 1.024 µM; top dose inferred
Procedure: (§1)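 Human cancer cell lines in 384-well plates, medium with 10% serum, drug for 72 h over a 256-fold dose range (nine 2-fold or five 4-fold steps up to the top dose). Adherent lines were fixed and stained with the nucleic acid dye Syto60, suspension lines read with resazurin; signal relative to control wells, capped at 0 and 100%. One two-parameter sigmoid per drug and line, fitted in a mixed model over all curves with the slope shared within a line.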

BX-912 = compound: O=C(Nc1cccc(Nc2ncc(Br)c(NCCc3cnc[nH]3)n2)c1)N1CCCC1 [BX-912]; conditions: top dose 10.24 µM; top dose inferred
Procedure: as §1

NSC-87877 = compound: O=S(=O)(O)c1ccc2cc(N=Nc3cc(S(=O)(=O)O)c4cccnc4c3O)ccc2c1 [NSC-87877]; conditions: top dose 16 µM; top dose inferred
Procedure: as §1

Tamoxifen = compound: CC/C(=C(\c1ccccc1)c1ccc(OCCN(C)C)cc1)c1ccccc1 [Tamoxifen]; conditions: top dose 5 µM
Procedure: as §1

OSI-930 = compound: O=C(Nc1ccc(OC(F)(F)F)cc1)c1sccc1NCc1ccnc2ccccc12 [OSI-930]; conditions: top dose 10.24 µM
Procedure: as §1

Bleomycin = compound: Cc1c(N)nc([C@H](CC(N)=O)NC[C@H](N)C(N)=O)nc1C(=O)N[C@H](C(=O)N[C@H](C)[C@@H](O)[C@H](C)C(=O)N[C@H](C(=O)NCCc1nc(-c2nc(C(=O)NCCC[S+](C)C)cs2)cs1)[C@@H](C)O)[C@@H](OC1OC(CO)C(O)C(O)C1OC1OC(CO)C(O)C(OC(N)=O)C1O)c1cnc[nH]1 [Bleomycin]
Procedure: as §1

Masitinib = compound: Cc1ccc(NC(=O)c2ccc(CN3CCN(C)CC3)cc2)cc1Nc1nc(-c2cccnc2)cs1 [Masitinib]; conditions: top dose 20 µM
Procedure: as §1

VNLG/124 = compound: CCCC(=O)OCc1ccc(OC(=O)/C=C(C)/C=C/C=C(C)/C=C/C2=C(C)CCCC2(C)C)cc1 [VNLG/124]; conditions: top dose 5.12 µM; top dose inferred
Procedure: as §1

Elesclomol = compound: CN(NC(=O)CC(=O)NN(C)C(=S)c1ccccc1)C(=S)c1ccccc1 [Elesclomol]; conditions: top dose 0.2 µM; top dose inferred
Procedure: as §1

[1] = top dose 50 µM, screen: GDSC drug entry 1378, top dose inferred
[2] = top dose 64 µM, screen: GDSC drug entry 190

Cell Line | AUC (LAQ824) | IC50 (LAQ824) [µM] | AUC (BX-912) | IC50 (BX-912) [µM] | AUC (NSC-87877) | IC50 (NSC-87877) [µM] | AUC (Tamoxifen) | IC50 (Tamoxifen) [µM] | AUC (OSI-930) | IC50 (OSI-930) [µM] | AUC (Bleomycin; [1]) | IC50 (Bleomycin; [1]) [µM] | AUC (Bleomycin; [2]) | IC50 (Bleomycin; [2]) [µM] | AUC (Masitinib) | IC50 (Masitinib) [µM] | AUC (VNLG/124) | IC50 (VNLG/124) [µM] | AUC (Elesclomol) | IC50 (Elesclomol) [µM]
GOTO (neuroblastoma, adherent) | 0.636 | 0.161 | 0.976 | > 10.2 | 0.977 | > 16 | 0.977 | > 5 | 0.966 | > 10.2 | 0.133 | < 0.195 | 0.248 | 0.67 | 0.945 | > 20 | 0.949 | > 5.12 | 0.536 | 0.0158
RF-48 (stomach, adherent) | 0.287 | 0.0147 | 0.828 | 7.4 | 0.975 | > 16 | 0.981 | > 5 | 0.926 | > 10.2 | 0.877 | > 50 | 0.34 | 1.36 | 0.887 | > 20 | 0.939 | > 5.12 | 0.962 | > 0.2
JHH-6 (liver, adherent) | 0.457 | 0.0489 | 0.947 | > 10.2 | 0.855 | 13.1 | 0.952 | > 5 | 0.978 | > 10.2 | 0.422 | 1.9 | 0.636 | 9.54 | 0.986 | > 20 | 0.98 | > 5.12 | 0.603 | 0.024
KP-3 (pancreas, adherent) | 0.5 | 0.0639 | 0.965 | > 10.2 | 0.984 | > 16 | 0.979 | > 5 | 0.966 | > 10.2 | 0.827 | 38.6 | 0.699 | 16.3 | 0.915 | > 20 | 0.97 | > 5.12 | 0.656 | 0.037
EJM (lymphoid neoplasm, semi-adherent) | 0.413 | 0.0386 | 0.908 | > 10.2 | 0.982 | > 16 | 0.992 | > 5 | 0.962 | > 10.2 | 0.946 | > 50 | 0.961 | > 64 | 0.893 | 17.2 | 0.967 | > 5.12 | 0.461 | 0.00997
DSH1 (bladder, adherent) | 0.419 | 0.0388 | 0.924 | > 10.2 | 0.985 | > 16 | 0.988 | > 5 | 0.98 | > 10.2 | 0.845 | 33.7 | 0.903 | > 64 | 0.935 | > 20 | 0.971 | > 5.12 | 0.624 | 0.027
IST-SL1 (small cell lung carcinoma, semi-adherent) | 0.421 | 0.0386 | 0.493 | 0.612 | 0.982 | > 16 | 0.98 | > 5 | 0.974 | > 10.2 | 0.892 | > 50 | 0.807 | 33.9 | 0.753 | 6.87 | 0.982 | > 5.12 | 0.727 | 0.0563
NCI-H2023 (lung adenocarcinoma, adherent) | 0.605 | 0.134 | 0.978 | > 10.2 | 0.975 | > 16 | 0.98 | > 5 | 0.981 | > 10.2 | 0.576 | 5.33 | 0.25 | 0.625 | 0.944 | > 20 | 0.981 | > 5.12 | 0.698 | 0.0522
PSN1 (pancreas, adherent) | 0.284 | 0.0176 | 0.849 | 5.93 | 0.99 | > 16 | 0.99 | > 5 | 0.943 | > 10.2 | 0.422 | 1.99 | 0.098 | 0.264 | 0.884 | 15.8 | 0.991 | > 5.12 | 0.312 | 0.00409
YT (lymphoid neoplasm, suspension) | 0.278 | 0.0168 | 0.864 | 6.8 | 0.989 | > 16 | 0.989 | > 5 | 0.983 | > 10.2 | 0.947 | > 50 | 0.337 | – | 0.888 | 16.6 | 0.967 | > 5.12 | 0.521 | 0.0141
YAPC (pancreas, adherent) | 0.894 | > 1.02 | 0.902 | > 10.2 | 0.983 | > 16 | 0.972 | > 5 | 0.979 | > 10.2 | 0.672 | 10.7 | 0.978 | > 64 | 0.959 | > 20 | 0.985 | > 5.12 | 0.737 | 0.0714
JHH-7 (liver, adherent) | 0.548 | 0.0859 | 0.963 | > 10.2 | 0.989 | > 16 | 0.984 | > 5 | 0.972 | > 10.2 | 0.816 | 25.5 | 0.679 | 12.2 | 0.785 | 7.99 | 0.984 | > 5.12 | 0.676 | 0.0373
IMR-5 (neuroblastoma, adherent) | 0.48 | 0.0569 | 0.276 | 0.168 | 0.987 | > 16 | 0.982 | > 5 | 0.969 | > 10.2 | 0.085 | < 0.195 | 0.085 | < 0.25 | 0.877 | 14.7 | 0.944 | > 5.12 | 0.977 | > 0.2
